# According to PubChem BioAssay AID493208 (National Center for Advancing Translational Sciences (NCATS), 2011):
# The campaign covered roughly 44,000 compounds. About 340 (0.77%) were called active. Not shown: some 5% with an inconclusive outcome. Calls follow the shape of the dose curve; as a rule, active = well fitted inhibition curve with a large enough effect; inconclusive = small, poorly fitted or top-dose-only effect; inactive = flat fitted curve, though single readings scatter. This is one part of the list.
# Assay: Acumen qHTS Assay for Inhibitors of the mTORC1 Signaling Pathway in MEF (Tsc2-/-, p53-/-) Cells: Sytravon; also: nearly all actives have a fitted effect of over 50% in size;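 as to activity change, negative = inhibition: plate controls were DMSO for no effect and rapamycin for full effect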
# Conditions: phospho-rpS6 immunofluorescence/PI, 24 h; series mostly up to 38.3 µM; activity change, negative = inhibition: at the top concentration
# In short: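 Immunofluorescence of rpS6 phosphorylation in Tsc2-/-, p53-/- MEFs after 24 h compound exposure, normalized to propidium iodide signal. Activity is expressed as % positive cells, thresholded with 7.5 nM rapamycin.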
# Potency is read from the fitted curve at half-maximal effect.
Structure (SMILES),"activity change, negative = inhibition",Potency
COc1cc(C(=O)N2CCN(c3ccc(Nc4ccccc4)nn3)CC2)cc(OC)c1OC,inactive: -1.78%,–
CC1CCCCN1S(=O)(=O)c1cc2c3c(c1)CC(=O)N3CCC2 (stereo unspecified),inactive: -10.7%,–
COc1ccc(N2CC(NC(=O)COc3ccc4ccccc4c3)CC2=O)cc1 (stereo unspecified),inactive: -1.18%,–
O=C(Cn1c(-c2cccs2)cc2ccccc21)NCc1ccccc1Br,inactive: -8.46%,–
COc1cccc(C(=O)Nc2ccccc2-c2nc3ccccc3s2)c1,inactive: 7.58%,–
CN(C)S(=O)(=O)c1ccc2c(c1)N(CC(=O)N1CCN(c3ccccc3F)CC1)CCS2,inactive: 0%,–
CCc1cccc(C)c1NC(=O)CN1C(=O)C2(SCC(=O)N2c2cc(C)cc(C)c2)c2ccccc21 (stereo unspecified),inactive: -3.83%,–
Cc1ccc(-c2nc(CS(=O)(=O)CC(=O)NCc3ccccc3Cl)c(C)o2)cc1,inactive: 3.3%,–
O=S(=O)(c1ccc2[nH]c3c(c2c1)CCCCC3)N1CCN(c2cccc(Cl)c2)CC1,inactive: -3.09%,–
Cc1ccccc1CNC(=O)c1sc2ncnc(N(C)C3CCCCC3)c2c1C,inactive: 0.981%,–
CC1=C(C(=O)Nc2cccc(C(F)(F)F)c2)C2(CCCCC2)OC1=O,inactive: 1.74%,–
Cc1cccc(NC(=O)c2sc(-n3nc(C)c(CCC(C)C)c3C)nc2C)c1C,inactive: 0%,–
COc1cc(OC)cc(C(=O)Nc2cccc(-c3cn4cccnc4n3)c2)c1,inactive: -0.786%,–
CCCOc1ccc(NC(=O)CC2C(=O)N(c3ccc(C)cc3)C(=O)N2Cc2cccc(OC)c2)cc1 (stereo unspecified),inactive: 2.08%,–
O=c1c2cc3c(nc2ncn1Cc1ccc(Cl)cc1)CCCC3,inactive: 1.24%,–
COc1ccc(NC(=O)CN2C(=O)c3ccccc3Sc3ccc(C(=O)N4CCOCC4)cc32)c(OC)c1,inactive: 1.72%,–
COc1cc(C(=O)OCc2cc(=O)n3nc(C(C)C)sc3n2)cc(OC)c1OC,inactive: -3.67%,–
CCOc1ccccc1NC(=O)CN1CCCN(Cc2cccc(Cl)c2)S1(=O)=O,inactive: -5.88%,–
COc1cc(NC(=O)c2cccc(F)c2)ccc1NC(=O)c1cc2ccccc2o1,–,active: 16.5 µM
Cc1nc2ncnn2c(C)c1CCC(=O)N1CCN(c2cccc(Cl)c2)CC1,inactive: 0.213%,–
CC1CCC2(CC1)N=C(c1ccccc1)C(=O)N2CC(=O)Nc1ccc(F)c(Cl)c1 (stereo unspecified),inactive: -18.7%,–

Structure (SMILES),"activity change, negative = inhibition",Potency
CCc1ccc(NC(=O)c2nnn(Cc3cccc(C(F)(F)F)c3)c2N)cc1,inactive: -3.31%,–
COc1cccc(CNC(=O)COCc2cc(-c3ccc4c(c3)OCO4)on2)c1,inactive: -1.53%,–
COc1cccc(CNC(=O)c2ccc3c(c2)nc2n3CCCCC2)c1OC,inactive: 1.9%,–
CCc1ccc(NC(=O)C2=CC(c3ccc4c(c3)OCO4)=NS(=O)(=O)N2C)cc1,inactive: -11.7%,–
COc1ccc(NC(=O)Nc2c[nH]c(=O)[nH]c2=O)c(OC)c1,inactive: -2.98%,–
CCOc1ccc(-c2nc(SCC(=O)NCCCOC)c(-c3ccccc3)[nH]2)cc1,inactive: -0.312%,–
CCn1c(CN2CCOCC2)nc2cc(NC(=O)c3ccc([N+](=O)[O-])cc3)ccc21,inactive: -4.32%,–
COc1ccccc1CNC(=O)CSc1ncc2c(n1)-c1cc(Cl)ccc1N(Cc1ccccc1)S2(=O)=O,inactive: -1.31%,–
Cc1c(C(=O)N(Cc2ccc(Cl)cc2)CC2CCCO2)oc2ccc(F)cc12 (stereo unspecified),inactive: -7.92%,–
CSc1ccc(CC2C(=O)Nc3ccccc32)cc1 (stereo unspecified),inactive: 0.0686%,–
O=C(Cc1ccccc1F)N1CCC(c2nc3c(nnn3Cc3ccc(F)cc3)c(=O)[nH]2)CC1,inactive: 4.74%,–
O=C(CS(=O)(=O)c1cccc2nsnc12)Nc1cc(F)ccc1F,inactive: 2.9%,–
CCc1ccccc1NC(=O)C1COc2ccccc2C1 (stereo unspecified),inactive: 0.424%,–
Cn1cnc(S(=O)(=O)N2CCC(C(=O)N3CCN(c4ccc(Cl)cc4)CC3)CC2)c1,inactive: 8%,–
N#C/C(=C\c1ccccc1)C(=O)Nc1sc2c(c1C(N)=O)CCC2,inactive: -3.27%,–
CC(C)Oc1ccc(CNC(=O)c2cnc3sc(N4CCCCC4)nn3c2=O)cc1,inactive: 0.515%,–
COc1cccc(C2C(C(=O)Nc3ccccc3)=C(C)Nc3nnnn32)c1OC (stereo unspecified),inactive: 3.91%,–
COc1cc2c(-c3ccc(C)cc3)nc3c(c(C)nn3-c3ccccc3)c2cc1OC,inactive: 3.13%,–
Cc1cc(C)cc(OCC(=O)Nc2ccc(Cl)c(-c3nc4ncccc4o3)c2)c1,inactive: -6.77%,–
N#Cc1ccc(OC(=O)c2cc(-c3ccc4c(c3)OCCO4)on2)cc1,inactive: -1.5%,–
CCc1ccc(Sc2cc(C(=O)NCCCOC(C)C)c3ccccc3n2)cc1,inactive: 6.33%,–

Structure (SMILES),"activity change, negative = inhibition",Potency
CC(=O)Nc1ccc(-n2c(CCC(=O)O)ccc2-c2ccc(C)cc2)cc1,inactive: 1.37%,–
CCOC(=O)c1oc2ccc(S(=O)(=O)n3nc(-c4cc(OC)cc(OC)c4)cc3N)cc2c1C,inactive: -10.3%,–
Cc1ccc(NC(=O)CSc2nc3c(oc4ccccc43)c(=O)n2Cc2ccco2)cc1,inactive: -2.94%,–
CCCn1c(=O)c2sccc2n2c(CCCC(=O)N3CCN(c4cccc(C)c4C)CC3)nnc12,inactive: 3.45%,–
CC(=O)N(Cc1cccnc1)c1nc2c(C)cccc2s1,inactive: 2.02%,–
Cn1cc(-c2cc3n(n2)CCC(=O)N3CCCC(=O)Nc2ccc(F)cc2F)c2ccccc21,inactive: 6.96%,–
Cc1cc(C)cc(-n2ccnc2SCC(=O)Nc2ccc3c(c2)OCO3)c1,inactive: -6.95%,–
Cc1cc2nc(-c3ccc(Br)cc3)cc(C(F)(F)F)n2n1,inactive: -0.903%,–
CCOC(=O)C1CCN(C(=O)Cn2nc(C)n3c(cc4cc(C)ccc43)c2=O)CC1,inactive: -4.75%,–
COc1ccc(CCn2c(=O)c3cccnc3n(CC(=O)Nc3cccc(C)c3)c2=O)cc1OC,inactive: -4.93%,–
COc1ccc(S(=O)(=O)NCc2ccc3c(c2)CCN3C(=O)c2ccc(C)cc2)cc1Cl,inactive: 0%,–
CCc1ccc(-c2cn3c(n2)sc2cc(C(=O)NCC(C)c4ccccc4)ccc23)cc1 (stereo unspecified),inactive: 5.53%,–
CCc1ccc(N2CCn3c2nc2c3c(=O)n(Cc3c(F)cccc3Cl)c(=O)n2C)cc1,inactive: -0.505%,–
Cc1nnc2c(N3CCN(c4ccccc4)CC3)nc3ccc(C(=O)c4ccccc4)cc3n12,inactive: 5.18%,–
Cc1ccc2nc(NS(=O)(=O)c3ccc(Cl)cc3)c(Nc3ccc(C(=O)O)cc3)nc2c1,inactive: 14.5%,–
O=C(C1CC1)N1CCc2cc(Br)cc(S(=O)(=O)N3CCN(c4ccccc4)CC3)c21,inactive: 2.71%,–
CCc1ccc(NS(=O)(=O)c2ccc(C(=O)N(C)C)s2)cc1,inactive: 0%,–
Cn1c(=O)c2sccc2n2c(CCC(=O)N3CCN(c4cccc(Cl)c4)CC3)nnc12,inactive: 6.36%,–
Cc1c(CNCCc2ccc(S(N)(=O)=O)cc2)c(C(=O)O)c(C)n1Cc1ccc(Cl)cc1,inactive: -8.45%,–
